Experimental data as given in paper PMC5343593.
Results are given in words; binding and its absence hold for the method and conditions named. In cells and extracts the contact can be indirect. Some binding calls cover weakened binding; strength is not graded here. For some assays here: Sequences can lack the tags named with a protein.

The chains behind the UniProt entries cited, without tags or fusion partners.
UniProt Q63HN8: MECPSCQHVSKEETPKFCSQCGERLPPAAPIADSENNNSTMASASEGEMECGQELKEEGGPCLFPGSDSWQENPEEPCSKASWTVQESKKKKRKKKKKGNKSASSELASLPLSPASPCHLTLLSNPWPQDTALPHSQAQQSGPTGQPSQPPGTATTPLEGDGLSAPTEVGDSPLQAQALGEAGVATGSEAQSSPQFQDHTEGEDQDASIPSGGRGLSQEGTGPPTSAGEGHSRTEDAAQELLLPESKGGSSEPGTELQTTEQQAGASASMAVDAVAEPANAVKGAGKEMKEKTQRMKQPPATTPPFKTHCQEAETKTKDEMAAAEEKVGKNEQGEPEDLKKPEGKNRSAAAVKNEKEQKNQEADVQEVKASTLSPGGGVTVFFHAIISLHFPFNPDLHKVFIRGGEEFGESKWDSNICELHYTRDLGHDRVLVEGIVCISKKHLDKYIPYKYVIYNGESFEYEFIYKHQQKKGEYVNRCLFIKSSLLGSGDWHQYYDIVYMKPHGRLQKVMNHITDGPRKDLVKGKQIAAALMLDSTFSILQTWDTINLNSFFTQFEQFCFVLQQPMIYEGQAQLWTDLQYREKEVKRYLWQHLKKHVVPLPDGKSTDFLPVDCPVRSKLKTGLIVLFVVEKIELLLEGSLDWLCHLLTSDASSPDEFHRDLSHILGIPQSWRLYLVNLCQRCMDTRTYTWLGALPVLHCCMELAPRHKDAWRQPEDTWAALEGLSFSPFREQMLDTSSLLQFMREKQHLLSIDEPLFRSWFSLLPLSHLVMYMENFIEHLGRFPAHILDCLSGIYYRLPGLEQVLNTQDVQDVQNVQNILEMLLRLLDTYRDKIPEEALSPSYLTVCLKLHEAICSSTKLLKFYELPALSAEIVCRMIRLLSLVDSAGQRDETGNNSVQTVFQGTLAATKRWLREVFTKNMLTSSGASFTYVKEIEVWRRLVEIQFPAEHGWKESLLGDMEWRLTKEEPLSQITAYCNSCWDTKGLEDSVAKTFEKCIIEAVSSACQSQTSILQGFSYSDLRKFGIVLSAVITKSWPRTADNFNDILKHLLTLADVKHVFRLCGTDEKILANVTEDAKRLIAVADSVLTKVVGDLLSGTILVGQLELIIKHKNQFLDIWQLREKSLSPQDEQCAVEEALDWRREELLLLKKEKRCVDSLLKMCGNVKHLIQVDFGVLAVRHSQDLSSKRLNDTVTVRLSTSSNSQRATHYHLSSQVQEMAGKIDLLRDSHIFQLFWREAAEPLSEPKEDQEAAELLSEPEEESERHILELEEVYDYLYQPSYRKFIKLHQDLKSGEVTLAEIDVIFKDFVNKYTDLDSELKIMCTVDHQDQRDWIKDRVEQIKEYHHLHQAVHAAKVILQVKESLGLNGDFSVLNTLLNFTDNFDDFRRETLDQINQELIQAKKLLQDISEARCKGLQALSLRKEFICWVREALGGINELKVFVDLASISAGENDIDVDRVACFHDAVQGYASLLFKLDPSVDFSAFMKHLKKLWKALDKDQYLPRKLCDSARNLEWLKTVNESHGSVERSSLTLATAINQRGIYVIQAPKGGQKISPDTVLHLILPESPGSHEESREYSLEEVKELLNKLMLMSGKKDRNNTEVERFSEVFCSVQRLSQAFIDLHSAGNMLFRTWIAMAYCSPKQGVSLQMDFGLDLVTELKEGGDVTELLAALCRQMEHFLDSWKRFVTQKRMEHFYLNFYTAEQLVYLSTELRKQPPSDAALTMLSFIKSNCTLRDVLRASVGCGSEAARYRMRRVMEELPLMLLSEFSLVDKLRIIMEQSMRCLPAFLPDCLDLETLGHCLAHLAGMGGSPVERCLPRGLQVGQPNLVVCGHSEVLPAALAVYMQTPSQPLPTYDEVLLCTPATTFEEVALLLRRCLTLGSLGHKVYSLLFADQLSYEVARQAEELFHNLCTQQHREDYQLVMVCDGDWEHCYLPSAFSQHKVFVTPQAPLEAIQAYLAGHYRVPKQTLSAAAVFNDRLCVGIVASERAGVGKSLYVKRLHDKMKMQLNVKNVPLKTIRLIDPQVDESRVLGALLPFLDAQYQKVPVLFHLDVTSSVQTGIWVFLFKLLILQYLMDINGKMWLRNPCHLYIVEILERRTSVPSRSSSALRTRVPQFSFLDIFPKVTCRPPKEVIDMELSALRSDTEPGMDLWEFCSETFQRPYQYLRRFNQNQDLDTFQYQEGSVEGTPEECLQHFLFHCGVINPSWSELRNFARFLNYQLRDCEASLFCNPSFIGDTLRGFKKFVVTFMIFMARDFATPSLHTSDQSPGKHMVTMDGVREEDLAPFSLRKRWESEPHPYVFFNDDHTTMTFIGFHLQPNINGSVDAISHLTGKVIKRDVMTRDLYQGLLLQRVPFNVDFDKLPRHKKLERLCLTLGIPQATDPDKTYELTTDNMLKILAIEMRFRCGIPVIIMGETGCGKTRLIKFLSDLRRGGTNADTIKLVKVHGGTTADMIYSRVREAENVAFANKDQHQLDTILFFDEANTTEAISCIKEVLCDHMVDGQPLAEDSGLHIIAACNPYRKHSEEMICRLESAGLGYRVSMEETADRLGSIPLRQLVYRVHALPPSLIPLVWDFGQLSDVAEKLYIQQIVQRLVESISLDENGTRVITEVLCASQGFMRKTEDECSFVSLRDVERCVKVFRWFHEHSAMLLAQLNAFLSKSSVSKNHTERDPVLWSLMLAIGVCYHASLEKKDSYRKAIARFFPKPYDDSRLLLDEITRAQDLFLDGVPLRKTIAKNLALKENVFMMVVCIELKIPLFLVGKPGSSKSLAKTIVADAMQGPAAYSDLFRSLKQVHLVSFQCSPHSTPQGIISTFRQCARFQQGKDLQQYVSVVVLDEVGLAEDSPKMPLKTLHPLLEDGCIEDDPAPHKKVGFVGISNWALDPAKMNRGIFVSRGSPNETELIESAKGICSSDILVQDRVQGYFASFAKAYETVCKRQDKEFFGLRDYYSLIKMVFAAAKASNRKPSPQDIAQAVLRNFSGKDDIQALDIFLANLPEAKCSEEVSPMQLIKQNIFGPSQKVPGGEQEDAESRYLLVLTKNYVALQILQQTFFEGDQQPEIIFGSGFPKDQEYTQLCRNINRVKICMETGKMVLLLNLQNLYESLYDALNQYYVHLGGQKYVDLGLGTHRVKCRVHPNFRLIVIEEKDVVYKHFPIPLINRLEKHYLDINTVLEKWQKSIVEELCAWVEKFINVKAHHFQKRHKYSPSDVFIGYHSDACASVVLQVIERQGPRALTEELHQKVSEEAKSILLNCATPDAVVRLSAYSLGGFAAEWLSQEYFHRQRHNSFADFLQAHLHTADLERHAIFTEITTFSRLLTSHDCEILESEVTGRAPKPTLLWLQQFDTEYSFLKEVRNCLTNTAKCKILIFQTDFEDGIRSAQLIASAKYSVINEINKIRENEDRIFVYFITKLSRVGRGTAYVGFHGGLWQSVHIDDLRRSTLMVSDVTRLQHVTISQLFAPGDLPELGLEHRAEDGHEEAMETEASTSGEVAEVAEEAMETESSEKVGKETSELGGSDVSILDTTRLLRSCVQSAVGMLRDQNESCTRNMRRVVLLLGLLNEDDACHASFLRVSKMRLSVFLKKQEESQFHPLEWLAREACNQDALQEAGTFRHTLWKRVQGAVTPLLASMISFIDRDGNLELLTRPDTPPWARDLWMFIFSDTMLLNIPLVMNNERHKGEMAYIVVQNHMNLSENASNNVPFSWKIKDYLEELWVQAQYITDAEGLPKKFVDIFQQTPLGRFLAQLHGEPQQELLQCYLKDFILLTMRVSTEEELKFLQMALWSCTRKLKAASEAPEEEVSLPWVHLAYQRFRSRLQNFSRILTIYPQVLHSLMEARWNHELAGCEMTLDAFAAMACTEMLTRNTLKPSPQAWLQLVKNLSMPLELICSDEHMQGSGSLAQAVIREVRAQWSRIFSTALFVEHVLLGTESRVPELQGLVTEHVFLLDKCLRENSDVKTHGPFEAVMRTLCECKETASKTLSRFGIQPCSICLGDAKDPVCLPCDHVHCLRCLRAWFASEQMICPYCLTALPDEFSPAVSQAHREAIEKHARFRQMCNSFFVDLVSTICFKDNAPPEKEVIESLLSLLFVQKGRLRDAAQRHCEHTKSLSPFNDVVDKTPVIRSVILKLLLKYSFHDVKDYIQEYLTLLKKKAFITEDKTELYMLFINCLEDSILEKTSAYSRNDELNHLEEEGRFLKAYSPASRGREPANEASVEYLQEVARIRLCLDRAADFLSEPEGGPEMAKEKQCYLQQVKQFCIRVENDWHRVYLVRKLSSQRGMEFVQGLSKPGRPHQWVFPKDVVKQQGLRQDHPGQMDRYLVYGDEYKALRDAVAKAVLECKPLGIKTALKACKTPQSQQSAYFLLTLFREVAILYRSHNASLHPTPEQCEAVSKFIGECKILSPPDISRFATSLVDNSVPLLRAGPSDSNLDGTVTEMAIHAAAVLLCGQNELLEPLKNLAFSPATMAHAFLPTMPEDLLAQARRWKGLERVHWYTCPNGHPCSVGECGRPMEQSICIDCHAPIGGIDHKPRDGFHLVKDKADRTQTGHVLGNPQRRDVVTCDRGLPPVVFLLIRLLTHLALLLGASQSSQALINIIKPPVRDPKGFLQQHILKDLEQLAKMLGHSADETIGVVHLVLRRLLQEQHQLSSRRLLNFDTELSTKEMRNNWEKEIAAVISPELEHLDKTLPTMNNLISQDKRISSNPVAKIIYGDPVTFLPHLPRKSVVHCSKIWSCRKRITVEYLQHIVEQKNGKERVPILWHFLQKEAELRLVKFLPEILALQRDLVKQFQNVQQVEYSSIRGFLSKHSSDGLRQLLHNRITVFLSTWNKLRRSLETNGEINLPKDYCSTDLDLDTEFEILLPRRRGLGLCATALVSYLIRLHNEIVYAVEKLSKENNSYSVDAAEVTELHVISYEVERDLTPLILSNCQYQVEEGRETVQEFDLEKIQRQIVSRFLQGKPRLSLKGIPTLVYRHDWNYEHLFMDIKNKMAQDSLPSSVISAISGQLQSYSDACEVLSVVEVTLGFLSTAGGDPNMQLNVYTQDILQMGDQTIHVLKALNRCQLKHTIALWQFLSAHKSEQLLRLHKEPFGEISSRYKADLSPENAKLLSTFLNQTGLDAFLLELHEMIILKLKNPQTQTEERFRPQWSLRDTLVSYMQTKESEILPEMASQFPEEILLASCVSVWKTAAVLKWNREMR

Key:
[1] = target: T1, USP15L-Myc (long isoform of USP15 with a Myc epitope tag at the C-terminus) (human) (UniProt Q9Y4E8); assay: co-IP; Myc-tagged USP15L or mutant transiently expressed in HEK293T; digitonin HEPES buffer; anti-Myc antibody and protein G beads; endogenous mysterin detected by immunoblot
T1 sequence: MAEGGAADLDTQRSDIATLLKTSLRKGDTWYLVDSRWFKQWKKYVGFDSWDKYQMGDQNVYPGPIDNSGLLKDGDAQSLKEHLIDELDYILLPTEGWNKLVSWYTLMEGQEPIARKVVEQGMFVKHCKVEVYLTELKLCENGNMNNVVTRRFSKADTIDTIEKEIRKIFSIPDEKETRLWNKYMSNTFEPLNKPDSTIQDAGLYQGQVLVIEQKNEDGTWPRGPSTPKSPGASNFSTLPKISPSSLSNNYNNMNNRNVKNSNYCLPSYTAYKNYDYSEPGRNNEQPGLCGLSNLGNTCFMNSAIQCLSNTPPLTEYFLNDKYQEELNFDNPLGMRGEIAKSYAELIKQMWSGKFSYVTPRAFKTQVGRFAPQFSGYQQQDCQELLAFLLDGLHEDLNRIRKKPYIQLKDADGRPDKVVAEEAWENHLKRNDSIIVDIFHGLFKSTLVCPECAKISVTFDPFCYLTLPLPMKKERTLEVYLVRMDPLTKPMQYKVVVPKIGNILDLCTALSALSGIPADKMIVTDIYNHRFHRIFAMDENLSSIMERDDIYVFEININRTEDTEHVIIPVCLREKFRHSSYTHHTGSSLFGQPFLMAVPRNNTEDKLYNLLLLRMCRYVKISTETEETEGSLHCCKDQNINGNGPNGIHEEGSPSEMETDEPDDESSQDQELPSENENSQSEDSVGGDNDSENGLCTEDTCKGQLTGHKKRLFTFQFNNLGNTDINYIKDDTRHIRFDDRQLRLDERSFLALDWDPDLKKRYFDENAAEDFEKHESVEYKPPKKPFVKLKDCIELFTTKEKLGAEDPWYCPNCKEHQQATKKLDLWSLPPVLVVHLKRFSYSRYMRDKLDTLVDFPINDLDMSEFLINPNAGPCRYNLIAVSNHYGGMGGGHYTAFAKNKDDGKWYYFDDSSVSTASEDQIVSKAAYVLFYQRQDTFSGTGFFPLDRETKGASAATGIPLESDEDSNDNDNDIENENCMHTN

USP15L ΔC1-3FLAG (human) = target: T2, USP15L ΔC1-3FLAG (human) (UniProt Q9Y4E8); assay: co-IP; FLAG/3FLAG-tagged bait transiently expressed in HEK293T; lysis in HEPES buffer (150 mM NaCl, 20 mM HEPES-NaOH pH 7.4) with digitonin; anti-FLAG M2 agarose beads 1 h; endogenous mysterin detected by immunoblot with anti-mysterin antibody
T2 sequence: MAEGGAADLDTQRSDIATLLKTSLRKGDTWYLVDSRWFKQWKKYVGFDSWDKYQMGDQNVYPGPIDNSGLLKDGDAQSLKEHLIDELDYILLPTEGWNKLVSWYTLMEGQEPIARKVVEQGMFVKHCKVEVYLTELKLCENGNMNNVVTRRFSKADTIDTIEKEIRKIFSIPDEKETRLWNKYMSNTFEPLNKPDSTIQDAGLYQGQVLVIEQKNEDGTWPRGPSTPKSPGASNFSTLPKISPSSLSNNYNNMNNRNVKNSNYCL

[2] = target: LYAR harboring a FLAG epitope tag at its C terminus (human) (UniProt Q9NX58); assay: as above
USP15L ΔN3-3FLAG (human) = target: T3, USP15L ΔN3-3FLAG (human) (UniProt Q9Y4E8); assay: as above
T3 sequence: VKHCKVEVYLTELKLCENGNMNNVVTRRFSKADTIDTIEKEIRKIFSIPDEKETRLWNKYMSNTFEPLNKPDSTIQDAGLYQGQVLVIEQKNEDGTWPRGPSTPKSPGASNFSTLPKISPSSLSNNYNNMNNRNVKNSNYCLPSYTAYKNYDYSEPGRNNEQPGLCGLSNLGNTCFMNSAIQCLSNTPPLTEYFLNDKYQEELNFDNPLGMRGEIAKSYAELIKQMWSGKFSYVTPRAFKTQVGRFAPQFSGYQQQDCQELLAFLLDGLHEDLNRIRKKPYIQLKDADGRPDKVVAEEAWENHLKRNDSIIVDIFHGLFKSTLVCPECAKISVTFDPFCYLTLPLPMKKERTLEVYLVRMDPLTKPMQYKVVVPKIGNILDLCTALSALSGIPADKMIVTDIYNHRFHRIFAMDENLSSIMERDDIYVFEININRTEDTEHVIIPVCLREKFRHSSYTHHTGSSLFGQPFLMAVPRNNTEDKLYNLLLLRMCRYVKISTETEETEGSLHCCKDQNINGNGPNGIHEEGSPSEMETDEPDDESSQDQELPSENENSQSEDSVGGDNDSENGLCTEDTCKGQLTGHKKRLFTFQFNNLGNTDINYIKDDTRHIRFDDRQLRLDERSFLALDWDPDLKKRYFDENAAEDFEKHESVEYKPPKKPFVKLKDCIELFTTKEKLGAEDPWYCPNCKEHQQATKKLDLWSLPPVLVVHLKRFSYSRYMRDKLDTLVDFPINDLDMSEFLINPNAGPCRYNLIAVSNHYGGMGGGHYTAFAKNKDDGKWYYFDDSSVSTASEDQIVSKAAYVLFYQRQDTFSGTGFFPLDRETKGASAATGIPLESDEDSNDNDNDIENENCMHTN

USP15L ΔC2-3FLAG (human) = target: T4, USP15L ΔC2-3FLAG (human) (UniProt Q9Y4E8); assay: as above
T4 sequence: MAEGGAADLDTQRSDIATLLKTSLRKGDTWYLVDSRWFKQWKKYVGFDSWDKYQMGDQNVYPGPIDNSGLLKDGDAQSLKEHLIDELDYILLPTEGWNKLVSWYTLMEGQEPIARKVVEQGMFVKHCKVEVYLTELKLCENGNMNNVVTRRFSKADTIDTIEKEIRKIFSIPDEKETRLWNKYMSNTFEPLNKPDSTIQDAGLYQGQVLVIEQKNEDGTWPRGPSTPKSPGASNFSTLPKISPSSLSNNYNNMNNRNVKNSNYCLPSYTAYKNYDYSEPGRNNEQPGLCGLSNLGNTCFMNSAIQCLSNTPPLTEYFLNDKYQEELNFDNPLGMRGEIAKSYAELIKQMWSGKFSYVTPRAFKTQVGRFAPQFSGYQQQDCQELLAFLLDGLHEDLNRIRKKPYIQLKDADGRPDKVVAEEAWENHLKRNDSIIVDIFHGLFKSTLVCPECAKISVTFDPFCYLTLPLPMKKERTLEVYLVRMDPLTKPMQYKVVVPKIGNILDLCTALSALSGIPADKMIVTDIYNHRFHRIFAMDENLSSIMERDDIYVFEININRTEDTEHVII

USP15L ΔN1-3FLAG (human) = target: T5, USP15L ΔN1-3FLAG (human) (UniProt Q9Y4E8); assay: as above
T5 sequence: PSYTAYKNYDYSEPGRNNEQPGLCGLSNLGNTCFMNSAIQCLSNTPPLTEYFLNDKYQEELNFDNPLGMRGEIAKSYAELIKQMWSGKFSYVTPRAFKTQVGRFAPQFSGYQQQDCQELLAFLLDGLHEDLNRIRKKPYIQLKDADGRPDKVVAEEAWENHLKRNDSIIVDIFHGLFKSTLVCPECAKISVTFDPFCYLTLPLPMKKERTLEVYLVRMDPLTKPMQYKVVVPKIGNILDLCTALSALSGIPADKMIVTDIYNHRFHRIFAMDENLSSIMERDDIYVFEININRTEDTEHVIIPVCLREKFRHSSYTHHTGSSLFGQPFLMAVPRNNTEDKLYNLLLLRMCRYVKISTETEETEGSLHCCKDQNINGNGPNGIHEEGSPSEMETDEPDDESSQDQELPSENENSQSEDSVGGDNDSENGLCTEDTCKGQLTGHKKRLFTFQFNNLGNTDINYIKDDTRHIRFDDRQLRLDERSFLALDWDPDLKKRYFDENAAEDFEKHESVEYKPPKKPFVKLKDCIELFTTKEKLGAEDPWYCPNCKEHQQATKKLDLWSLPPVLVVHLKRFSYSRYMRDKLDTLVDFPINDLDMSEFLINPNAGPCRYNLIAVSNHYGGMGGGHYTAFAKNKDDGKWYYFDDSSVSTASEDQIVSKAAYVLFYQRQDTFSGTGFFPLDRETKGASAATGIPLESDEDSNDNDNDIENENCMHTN

[3] = target: T6, USP15L-3FLAG (long isoform of USP15 with three tandem FLAG tags at the C-terminus) (human) (UniProt Q9Y4E8); assay: as above
T6 sequence: T1 sequence

USP15L ΔN2-3FLAG (human) = target: T7, USP15L ΔN2-3FLAG (human) (UniProt Q9Y4E8); assay: as above
T7 sequence: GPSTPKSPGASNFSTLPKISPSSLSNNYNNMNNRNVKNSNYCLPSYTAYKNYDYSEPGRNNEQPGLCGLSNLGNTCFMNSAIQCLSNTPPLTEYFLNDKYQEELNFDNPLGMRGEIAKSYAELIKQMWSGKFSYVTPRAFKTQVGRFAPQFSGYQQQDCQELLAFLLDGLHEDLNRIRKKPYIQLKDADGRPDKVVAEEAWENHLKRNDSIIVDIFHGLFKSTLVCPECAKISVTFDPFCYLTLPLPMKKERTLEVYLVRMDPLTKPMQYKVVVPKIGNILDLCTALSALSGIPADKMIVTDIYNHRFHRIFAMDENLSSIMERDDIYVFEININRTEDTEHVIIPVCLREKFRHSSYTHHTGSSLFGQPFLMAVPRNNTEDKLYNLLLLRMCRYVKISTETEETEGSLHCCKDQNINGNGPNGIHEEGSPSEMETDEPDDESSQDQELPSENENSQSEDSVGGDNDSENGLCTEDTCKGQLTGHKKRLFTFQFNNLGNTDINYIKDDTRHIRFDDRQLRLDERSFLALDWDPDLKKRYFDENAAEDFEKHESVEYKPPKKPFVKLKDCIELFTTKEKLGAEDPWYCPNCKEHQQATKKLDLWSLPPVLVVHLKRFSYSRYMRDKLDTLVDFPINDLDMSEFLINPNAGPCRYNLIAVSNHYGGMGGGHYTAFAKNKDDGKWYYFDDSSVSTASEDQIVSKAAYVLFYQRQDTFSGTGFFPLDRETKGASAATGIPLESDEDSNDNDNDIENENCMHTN

binding [1]: binds
binding (USP15L ΔC1-3FLAG (human)): no binding
binding [2]: binds
binding (USP15L ΔN3-3FLAG (human)): no binding
binding (USP15L ΔC2-3FLAG (human)): no binding
binding (USP15L ΔN1-3FLAG (human)): no binding
binding [3]: binds
binding (USP15L ΔN2-3FLAG (human)): no binding
Substance: mysterin (moyamoya steno-occlusive disease-associated AAA+ and RING finger protein), endogenous (from UniProt Q63HN8 1-5207)
